Source: the antibiotic and cytotoxicity screens of Wong et al. (2023)
The list shows a part of the results.

Assays:
HSkMC = human skeletal muscle cells; experiment: cytotoxicity call (relative viability < 0.9); conditions: 10 µM
HepG2 = experiment: cytotoxicity call (relative viability < 0.9); conditions: 10 µM
S. aureus RN4220 = experiment: growth inhibition call (relative growth <= 0.2); conditions: 50 µM

SMILES	cytotoxicity call (HSkMC)	cytotoxicity call (HepG2)	growth inhibition call (S. aureus RN4220)
CC(C)CNc1nc(=O)cn[nH]1	inactive	active	inactive
COc1ccc([C@H]([C@@H](O)Cc2ccccc2)N(C[C@H](/C=C/c2ccccc2)NC(=O)C(Cl)(Cl)Cl)[C@@H](Cc2ccccc2)C(OC)OC)cc1	inactive	inactive	inactive
Cc1ccc(S(=O)(=O)Nc2ccc3c(c2)C(=O)N([C@@H](C)CO)C[C@H](C)[C@@H](CN(C)Cc2ccc(C(F)(F)F)cc2)OCCCC[C@@H](C)O3)cc1	active	active	inactive
C[C@@H]1CN([C@H](C)CO)S(=O)(=O)c2ccc(C#Cc3ccc(F)cc3)cc2O[C@@H]1CN(C)S(=O)(=O)c1cn(C)cn1	inactive	inactive	inactive
COc1ccccc1C#Cc1ccc2c(c1)O[C@@H](CN(C)C(C)=O)[C@@H](C)CN([C@@H](C)CO)S2(=O)=O	inactive	inactive	inactive
C[C@H]1CN([C@@H](C)CO)C(=O)CCCn2nncc2CO[C@H]1CN(C)C(=O)Nc1ccnc(N2CCOCC2)c1	inactive	inactive	inactive
COc1ccc(COC[C@]23N=C4SCc5ccccc5CN4[C@H](c4ccccc4O2)[C@H]3COC(=O)NCCCCCC(=O)NO)cc1	inactive	inactive	inactive
Cc1noc(C)c1S(=O)(=O)N(C)C[C@@H]1Oc2ccc(NS(=O)(=O)c3ccc(Cl)cc3)cc2CC(=O)N([C@@H](C)CO)C[C@@H]1C	inactive	inactive	inactive
C[C@@H]1CN([C@H](C)CO)C(=O)Cc2cc(NC(=O)Nc3cccc4ccccc34)ccc2O[C@@H]1CN(C)Cc1ccc(Oc2ccccc2)cc1	inactive	active	inactive
C[C@H]1CN([C@@H](C)CO)C(=O)Cc2cc(NC(=O)Nc3ccc(C(F)(F)F)cc3)ccc2O[C@H]1CN(C)Cc1ccc(Oc2ccccc2)cc1	active	active	inactive
CCCCC/C=C\C/C=C\C/C=C\CCCCC(=O)O	inactive	inactive	inactive
C[C@H]1CN([C@@H](C)CO)C(=O)c2cc(NC(=O)NC3CCCCC3)ccc2O[C@@H]1CN(C)Cc1ccc(-c2ccccc2)cc1	inactive	active	inactive
c1ccc2[nH]c(-c3cscn3)nc2c1	inactive	inactive	inactive
CCc1nc2ccc(C(=O)NCCCN3CCCC3=O)cn2c1N(CC)C(=O)NCCc1ccccc1	inactive	inactive	inactive
C[C@H](CO)N1C[C@H](C)[C@H](CN(C)C(=O)C2CCC2)Oc2cc(-c3ccc(C(=O)N(C)C)cc3)ccc2S1(=O)=O	inactive	inactive	inactive
COCC(=O)N1C[C@H](C)[C@@H](OC)CN(C)C(=O)c2ccc(NC(=O)c3cc(C)on3)cc2OC[C@H]1C	inactive	inactive	inactive
CC(=O)NCCCC[C@@H]1NC(=O)[C@@H]2C[C@H](C(=O)NCc3ccc(F)cc3)[C@H](c3ccc(O)cc3)N2C1=O	inactive	inactive	inactive
COc1ccc(S(=O)(=O)N(C)C[C@H]2Oc3c(NC(=O)Nc4c(C)noc4C)cccc3C(=O)N([C@H](C)CO)C[C@H]2C)cc1	inactive	inactive	inactive
C[C@@H]1CCCCO[C@@H](CN(C)C(=O)Nc2cccc3ccccc23)[C@H](C)CN([C@@H](C)CO)C(=O)c2cc(NC(=O)C3CCCCC3)ccc2O1	inactive	inactive	inactive
C[C@H](CO)N1C[C@H](C)[C@@H](CN(C)C(=O)Nc2ccc3c(c2)OCO3)Oc2ccc(NC(=O)CCN3CCOCC3)cc2C1=O	inactive	inactive	inactive
C[C@@H]1CN([C@H](C)CO)C(=O)c2cc(C#CC3(O)CCCC3)cnc2O[C@H]1CN(C)C(=O)Cc1cccnc1	inactive	inactive	inactive
Cn1cncc1CN1CCO[C@]2(COCCN(S(C)(=O)=O)C2)C1	inactive	inactive	inactive
COc1ccc([C@@H]([C@H](Cc2ccccc2)OC(C)=O)N2C[C@@H]3[C@H]([C@@H]2Cc2ccccc2)N(C)O[C@@]3(O)[C@@H](O)c2ccccc2)cc1	inactive	inactive	inactive
C[C@@H](N)c1nc2c(s1)CCCC2	inactive	inactive	inactive
C[C@@H]1CN([C@H](C)CO)S(=O)(=O)c2ccc(Br)cc2O[C@@H]1CN(C)S(=O)(=O)c1ccccc1	inactive	inactive	inactive
CCCCCCCCCCC[C@@H](N=O)c1cc(C)ccc1O	inactive	inactive	inactive
